The values below come from publication PMC4336329 (PLoS ONE, 2015).

Out of some 310,000 compounds screened, about 14,000 (4.5%) showed an effect of 50% or more. Effects have a minus sign here. This is one part of the list.
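Also: peak tail current of the secondary pulse compared with the same well before compound.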

The target in this experiment is human ether-à-go-go-related gene (hERG) potassium channel (human, UniProt Q12809). The experiment can be described thus: primary screen, population patch clamp on CHO cells stably expressing hERG.
Chain of human ether-à-go-go-related gene (hERG) potassium channel (Q12809 whole entry, looked up): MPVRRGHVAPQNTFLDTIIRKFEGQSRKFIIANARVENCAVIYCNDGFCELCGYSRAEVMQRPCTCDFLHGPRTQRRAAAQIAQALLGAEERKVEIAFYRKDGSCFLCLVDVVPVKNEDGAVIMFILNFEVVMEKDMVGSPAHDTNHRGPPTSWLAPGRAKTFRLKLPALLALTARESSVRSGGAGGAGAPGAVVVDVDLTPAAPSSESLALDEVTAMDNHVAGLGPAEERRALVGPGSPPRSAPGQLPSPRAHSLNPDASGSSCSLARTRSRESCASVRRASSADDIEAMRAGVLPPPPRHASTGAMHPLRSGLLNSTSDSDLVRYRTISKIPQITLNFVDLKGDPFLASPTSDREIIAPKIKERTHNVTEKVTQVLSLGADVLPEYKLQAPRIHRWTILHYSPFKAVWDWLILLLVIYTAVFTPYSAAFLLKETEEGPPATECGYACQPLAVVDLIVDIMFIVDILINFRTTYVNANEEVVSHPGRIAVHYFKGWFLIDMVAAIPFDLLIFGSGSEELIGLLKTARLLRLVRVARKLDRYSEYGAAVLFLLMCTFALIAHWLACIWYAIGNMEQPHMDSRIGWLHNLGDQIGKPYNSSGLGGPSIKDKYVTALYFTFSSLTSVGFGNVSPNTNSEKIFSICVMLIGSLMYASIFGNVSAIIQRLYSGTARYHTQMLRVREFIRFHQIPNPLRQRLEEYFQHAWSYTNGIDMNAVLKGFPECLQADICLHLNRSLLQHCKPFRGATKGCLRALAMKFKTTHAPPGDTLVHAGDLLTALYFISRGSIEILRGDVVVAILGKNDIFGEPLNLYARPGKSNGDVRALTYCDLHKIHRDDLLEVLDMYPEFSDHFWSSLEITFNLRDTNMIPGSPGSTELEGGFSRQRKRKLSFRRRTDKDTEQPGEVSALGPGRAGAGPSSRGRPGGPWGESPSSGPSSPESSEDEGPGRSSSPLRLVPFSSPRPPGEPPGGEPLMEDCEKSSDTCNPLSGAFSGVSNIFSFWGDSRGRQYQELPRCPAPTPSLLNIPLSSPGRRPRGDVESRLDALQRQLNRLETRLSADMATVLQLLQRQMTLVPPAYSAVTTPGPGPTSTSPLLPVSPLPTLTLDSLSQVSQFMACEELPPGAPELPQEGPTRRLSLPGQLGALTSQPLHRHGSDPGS
For the molecule `CSCCC1COC(c2cccs2)=N1` (stereo not shown), the “hERG current change (%, negative = inhibition) at 10uM” value is 7.81%.
Then `CCCNC(=O)c1ccc(OC)cc1OC`, with 15.4%; and `COc1cc(/C=N/NS(=O)(=O)c2ccccc2)ccc1OS(=O)(=O)c1ccc(C)cc1`, with 0.874%; and `Nc1cc(N)nc(SCC(=O)Nc2cccc(S(=O)(=O)N3CCCCC3)c2)n1`, with 4.03%.
Then `CSCC[C@H](NC(=O)NC1CCCC1)C(=O)O`, with 12.2%; and `CCOc1cc(C(=O)Nc2cccc3ncccc23)cc(OCC)c1OCC`, with -7.69%; and `CCOC(=O)c1nc2nc(-c3cccs3)cc(C(F)(F)F)n2n1`, with 16.4%.
Then `CC(=O)Nc1ccc(S(=O)(=O)N(C)CC(=O)OC(C)C(=O)NC2CCCCC2)cc1` (stereo not shown), with 4.23%.
Regarding `O=C(CC1C(=O)NCCN1Cc1ccc(F)cc1)NC1CCCCCCC1` (stereo not shown), the “hERG current change (%, negative = inhibition) at 10uM” value is on record as -8.27%.
Then `O=C(O)Cn1c2ccccc2c2ccccc21`, with 30.5%; and `COc1cccc(-c2csc(N3CCN(CC(=O)NNC(=O)c4ccco4)CC3)n2)c1`, with 5.44%; and `COc1cc2c(cc1OC)-c1cc(Nc3cccc(C)c3)nc(=O)n1CC2`, with -45.4%.
As to `COc1cccc(/C=N/NC(=O)CN2CC(c3ccccc3)CC2=O)c1O` (stereo not shown), the “hERG current change (%, negative = inhibition) at 10uM” value is given as -9.13%.
As for `CCCS(=O)(=O)Nc1c(C(=O)OC)[nH]c2ccccc12`, the figure is -12.5%; as for `Cc1[nH]c2ccccc2c1C(=O)C(=O)N(C)C1CCCCC1`, -12.7%; as for `O=C(c1ccccc1)c1cccn1CC(=O)N1CCCCCC1`, 5.2%.
Then `COC(=O)C(C)Sc1nc2c(c(=O)n(C)c(=O)n2C)n1CCC(C)C` (stereo not shown), with -24.3%; and `O=C(COc1ncnc2scc(-c3ccc(Cl)cc3)c12)NCc1ccco1`, with -5.97%; and `C/C(=N\OC(=O)Nc1ccccc1)c1ccc(C)cc1`, with -15.9%.
For `CCN1CCN(c2cc(C)c3cc(NC(=S)N4CCN(c5ccccc5)CC4)ccc3n2)CC1`, the “hERG current change (%, negative = inhibition) at 10uM” value was -0.088%.
For the molecule `Cc1ccc(NC(=O)Cn2nnc(C(=O)NCc3ccccc3)c2N)cc1C`, the “hERG current change (%, negative = inhibition) at 10uM” value came out at 17%.
As for `COc1cc(CC(=O)NCC(C)(C)N2CCOCC2)cc(OC)c1OC`, the figure is 20%.
Then `O=S(=O)(Nc1ccc(Cl)cc1)c1ccc(N2CCOCC2)c(NC(=S)NCCN2CCOCC2)c1`, with -1.66%.
Then `COc1ccc(NC(=O)CN2CCN(C(=O)C3CCCO3)CC2)c(OC)c1` (stereo not shown), with -33%; and `CN(C)S(=O)(=O)c1ccc(Cl)c(NC(=O)CN2CCN(Cc3ccc4c(c3)OCO4)CC2)c1`, with -64.6%.
In the case of `O=C(CC1NCCc2ccccc21)Nc1ccccc1` (stereo not shown), the “hERG current change (%, negative = inhibition) at 10uM” value is listed as 0.246%.
Then `CN1C(=O)c2cccc3c(S(N)(=O)=O)ccc1c23`, with 2.25%; and `N#CCSc1nnc(Cc2cccc3ccccc23)n1C1CCCCC1`, with -14.9%; and `COc1ccc(NC(=O)CN(C)C(=O)CCCN2C(=O)c3cccc4cccc(c34)C2=O)cc1`, with -42.7%.
As for `COc1ccc(NC(=O)c2ccc([N+](=O)[O-])s2)c([N+](=O)[O-])c1`, the figure is -2.64%; as for `CCc1ccc(-c2nc(CN3CCC(C(=O)NCc4ccc(F)cc4)CC3)c(C)o2)cc1`, -50.5%; as for `CCOCc1cnc(C)nc1NCC(=O)c1c(C)[nH]c2cc(C)ccc12`, 5.35%.
For the molecule `S=C(NCc1cccs1)Nc1cccc2ccccc12`, the “hERG current change (%, negative = inhibition) at 10uM” value is reported as 7.98%.
As for `Cc1[nH+]csc1CCOC(=O)C1C2CC3CC(C2)CC1C3.[Cl-]` (stereo not shown), the figure is -3.76%; as for `CCOC(=O)c1cc2c(C)n(-c3ccc(N(C)C)cc3)c(C)c2cc(C(=O)OCC)c1=O`, 6.08%.
Then `COC(=O)Cn1c(CCS(=O)(=O)c2ccc(Cl)cc2)nc2ccccc21`, with -9.61%; and `CCn1cc(C(=O)NCCCN2CCCC(C)C2)c(=O)c2cc(S(=O)(=O)N3CCOCC3)ccc21` (stereo not shown), with 14.6%.
Then `Cc1ccc(NC(=O)Nc2ccno2)cc1`, with 17.8%.
In the case of `CCCSc1nc2sc3c(c2c(=O)[nH]1)CC(C)CC3` (stereo not shown), the “hERG current change (%, negative = inhibition) at 10uM” value was 27.3%.
Then `COC(=O)c1sc(N(C)C)c(C#N)c1-c1ccccc1`, with 11.7%; and `O=C(CCc1ccc(S(=O)(=O)NCc2ccccc2)cc1)NCc1ccc2c(c1)OCO2`, with -6.93%.
Then `CCCCC(=O)Nc1ccccc1Oc1ccccc1`, with 19.4%; and `COc1ccc(OC)c(/C(O)=C/C(=O)C(=O)Nc2ccccc2OC)c1`, with 6.16%; and `CN(C(=O)c1ccc(NC(=O)Cc2cccc(NC(=O)C3CCN(C(=O)C4CC4)CC3)c2)cc1)C1CCCC1`, with 10.8%.
On to `CCN(CC(=O)NCc1ccc(Cl)cc1)C(=O)CSc1ccccc1F`, for which the “hERG current change (%, negative = inhibition) at 10uM” value is -19.3%.
Then `COc1cccc(NC(=O)C2CCCC2)c1`, with 13.2%; and `Cc1nn(Cc2ccccc2Cl)c(C)c1NC(=O)c1noc(C(C)C)c1[N+](=O)[O-]`, with -5.07%.
As for `CCn1c(C)nnc1SCC(=O)Nc1ccc(C(C)=O)cc1`, the figure is 11.5%; as for `COc1ccccc1/C=C/C=N/NC(=O)c1cc(-c2ccc(C)o2)[nH]n1`, -5.24%; as for `O=C(CCN1CCOCC1)NNC(=O)Nc1cccc([N+](=O)[O-])c1`, 15.2%.
As for `COc1ccc(CCNC(=O)C2CCN(S(=O)(=O)c3ccc(C)cc3)CC2)cc1OC`, the figure is 2.66%; as for `COc1cc(-n2c(=O)c3ccccc3n(Cc3cccc(C)c3)c2=O)cc(OC)c1OC`, 23.3%; as for `CN1CCN(S(=O)(=O)c2cccc(C(=O)Nc3cc(C(F)(F)F)ccc3N3CCCC3)c2)CC1`, -1.41%.
For the molecule `Cn1nc(C(=O)OCC(=O)NC2CCS(=O)(=O)C2)c2ccccc2c1=O` (stereo not shown), the “hERG current change (%, negative = inhibition) at 10uM” value came out at 12.8%.
On to `COc1ccc(CCN(C)C(=O)c2cccc(S(=O)(=O)NCc3ccccc3)c2)cc1OC`, for which the “hERG current change (%, negative = inhibition) at 10uM” value is on record as -3.65%.
Then `O=C(Nc1ccc(NC(=S)NC(=O)C(c2ccccc2)c2ccccc2)cc1)c1ccccc1`, with 3.58%.
Then `CSc1ncc(C(=O)Nc2ccc(C)cc2C)c(C)n1`, with 24.4%; and `Cc1nnc2c(NCCC(C)C)nc3ccccc3n12`, with 11.7%; and `CCOc1cc(NC(=O)c2ccccc2OC)c(OCC)cc1NC(=O)c1ccccc1`, with 21.5%.
As for `O=c1[nH]c(=O)n(Cc2ccco2)c2c1C(C(F)(F)F)(C(F)(F)F)N=C(CCc1ccccc1)N2`, the “hERG current change (%, negative = inhibition) at 10uM” value came out at 7.87%.
Then `CCN1CCN(C(c2cccc(OC)c2OC)c2nnnn2Cc2ccco2)CC1.Cl` (stereo not shown), with 14%; and `Cc1cc(NC(=O)COC(=O)c2cc(S(=O)(=O)N(C)C)ccc2Cl)no1`, with 13.3%; and `CC(C)(C)NCc1ccccc1OCc1cccs1.Cl`, with 6.17%.
For `CC(C)(C)OC(=O)N1CCC(C(=O)N[C@@H](Cc2ccccc2)C(=O)O)(c2ccccc2)CC1`, the “hERG current change (%, negative = inhibition) at 10uM” value is given as -0.216%.
In the case of `CCOC(=O)Nc1ccc2c(c1)N(C(=O)CCN1CCN(C)CC1)c1ccccc1S2.Cl`, the “hERG current change (%, negative = inhibition) at 10uM” value is -15.2%.
Then `CCC1(C)Cc2ccccc2-c2nc(NCCCO)n(C)c(=O)c21` (stereo not shown), with -6.75%; and `Clc1ccccc1-c1ncc2ccccn12.O=C(O)C(=O)O`, with 0.632%; and `COc1ccccc1/C=C1\NC(=S)N(CC2CCCO2)C1=O` (stereo not shown), with -18.3%.
Turning to `O=C(CCc1nc(-c2ccccc2F)no1)NCc1ccco1`, the “hERG current change (%, negative = inhibition) at 10uM” value is -8.57%.
`Cc1ccc2nc(N3CCCCC3)c(C=O)c(=O)n2c1`: the “hERG current change (%, negative = inhibition) at 10uM” value was 4.68%.
As for `Cc1ccc(C)c(OCC(=O)O/N=C(\N)c2cccc([N+](=O)[O-])c2)c1`, the figure is -0.423%; as for `CCOC(=O)c1ccc(NCn2c(=O)oc3ccccc32)cc1`, -14.5%; as for `COc1ccc(NC(=O)CCc2nnc3ccc(N4CCC(C)CC4)nn23)cc1`, -22.9%.
As for `Cc1cc(C(=O)OCC(=O)Nc2nccs2)c2ccccc2n1`, the figure is 1.22%; as for `O=C(Oc1ccccc1)c1ccc(NC(=O)c2ccco2)cc1`, 9.26%; as for `CCOC(=O)C1=C(C)NC(SCC(=O)O)=C(C#N)C1c1ccco1` (stereo not shown), -3.38%.
Then `CCOC(=O)C1CCCN(C/C(O)=C(\C#N)c2nc(-c3ccccc3)cs2)C1` (stereo not shown), with 2.57%; and `O=C(CCc1nnc(Cc2c[nH]c3ccccc23)o1)NC1CCCC1`, with -3.41%; and `O=c1c2cccnc2nc2n1CCCCC2`, with 58.1%.
As to `CC(NC(=O)c1ccccc1F)c1ccccc1` (stereo not shown), the “hERG current change (%, negative = inhibition) at 10uM” value was found to be 3.4%.
Then `COc1ccccc1-c1ccc(/C=C2\C=CC(=O)O2)o1`, with 5.42%; and `CC(=O)NC(CCS(C)(=O)=O)C(=O)Nc1c(F)cccc1F` (stereo not shown), with -1.59%; and `Brc1cc(Br)c(Oc2cc(Br)c(Br)cc2Br)cc1Br`, with 16.4%.
Regarding `Cc1ccc(S(=O)(=O)Nc2c(C)cc(C)nc2Cl)cc1`, the “hERG current change (%, negative = inhibition) at 10uM” value worked out at 2.77%.
As to `O=C(NC1CCCCC1)C(c1cc2c(cc1[N+](=O)[O-])OCO2)N1CCCCC1` (stereo not shown), the “hERG current change (%, negative = inhibition) at 10uM” value is -16.5%.
In the case of `O=S(=O)(Nc1nc2ccccc2s1)c1ccc(Br)s1`, the “hERG current change (%, negative = inhibition) at 10uM” value is -5.3%.
Consider `COc1ccccc1-n1c(CNC(=O)c2ccc(S(=O)(=O)N3CCOCC3)cc2)n[nH]c1=S`, for which the “hERG current change (%, negative = inhibition) at 10uM” value came out at 9.27%.
Then `CCc1cc(=O)oc2cc(OC(=O)CN3C(=O)NC4(CCCC4)C3=O)ccc12`, with 1.95%.
